# Source: PubChem BioAssay (NCATS)
# “And” between values parts separate entries of the source, which are not always exact repeats. Identical values can stand only once. Inconclusive means that the source gave no clear call. Such entries were picked first, then a sample of the others. For some of these results: Where the call is inconclusive, the potency comes from a doubtful curve fit. The source made the active and inactive calls. Unless noted, calls follow the shape of the dose curve; as a rule, active = well fitted curve in the direction sought with a large enough effect; inconclusive = small, poorly fitted or top-dose-only effect, or another doubt; inactive = no such curve, though single readings can be large; an effect the other way counts as inactive or inconclusive.
# What was measured:
# [1] = Primary qHTS for inhibitors of nuclear receptor binding SET domain protein 2 (NSD2) in an RCH-ACV wild type WT cells (2C) (AID 1645877); details: RCH-ACV (leukaemia line) NSD2 WT (2C) viability, CellTiter-Glo, 72 h; series mostly up to 44.9 µM; also: potency is read from the fitted curve at half-maximal effect; nearly all actives have a fitted effect of over 70% in size
# [2] = Primary fluorescence-based thiol-reactive (MSTI) qHTS assay for identification of artifact compounds. (AID 1845221); details: MSTI thiol-reactivity probe, 1 h; series mostly up to 53.8 µM;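 also: potency is read from the fitted curve at half-maximal effect; thiol-reactive compounds lower the probe fluorescence signal; nearly all actives have a fitted effect of over 65% in size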
# Method in brief: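 One-hour, room-temperature, dark incubation of compound with 4 uM MSTI in PBS (pH 7.4, 2% DMSO) precedes a fluorescence read at 525 nm excitation, 598 nm emission; Hill-equation fitting yields concentration-response values.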
# [3] = NCATS anti-infectives library activity on HEK293 viability as a counter-qHTS vs the C. elegans viability qHTS (AID 1745854); details: HEK293 viability counter-screen; series mostly up to 41.8 µM;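 also: HEK293 cells exposed to compounds for 24 hr before the viability read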; also: potency is read from the fitted curve at half-maximal effect
# Method in brief: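 Compound titrations (final up to 41.7 uM) were incubated with HEK293 cells for 24 hr at 37C under 5% CO2. Viable cells were quantified with CellTiter-Glo after 10 min at ambient temperature.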
# [4] = NCATS anti-infectives library activity on the primary C. elegans qHTS viability assay (AID 1745855; calls by dose curve; also: potency is read from the fitted curve at half-maximal effect); details: C. elegans worm area imaging, day 7; series mostly up to 41.8 µM
# Method in brief: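 Titration-based screen in worms: eggs hatched overnight in M9, L1 larvae fed TOP10 capsules in S medium with compound, incubated 21 °C for 7 days; fluorescent objects gated by size and intensity at days 0, 3 and 7.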
# [5] = target: Glutathione peroxidase 1 (Homo sapiens) (UniProt P07203); experiment: Primary qHTS Assay for Inhibitors of Recombinant Selenoprotein Glutathione Peroxidase 1 (GPX1) (AID 1845191); details: recombinant GPX1, GR-coupled NADPH fluorescence, 15 min; series mostly up to 48.8 µM; also: potency is read from the fitted curve at half-maximal effect; nearly all actives have a fitted effect of over 65% in size
# Method in brief: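 NADPH consumption tracked by fluorescence at 340/450 nm between t=0 and t=15 min, room temperature. Final mix: 10 nM GPX1, 100 nM glutathione reductase, 1 mM GSH, 0.5 mM NADPH, 0.5 mM cumene hydroperoxide, 0.01% BSA; 30 min compound–enzyme preincubation.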
# [6] = Viability counterscreen for antagonist of constitutive androstane receptor (CAR) against the NCATS DSHEA and TCM libraries (AID 1794837); details: CAR reporter cell line viability counterscreen, qHTS; series mostly up to 40 µM;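 also: compound exposure lasted 24 h before viability reading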
# Method in brief: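 Viability was measured by CellTiter-Fluor fluorescence (405/540 nm, 1 hr) in HepG2-CYP2B6-hCAR cells. Cells were co-treated 24 hr with 48 uM CITCO (final), antagonist mode, and test substances.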
# [7] = target: Metallo-beta-lactamase type 2 (Klebsiella pneumoniae) (UniProt C7C422); experiment: qHTS to identify inhibitors of the New Delhi Metallo-beta-lactamase (NDM): assay validation screen against the NCATS LOPAC Collection (AID 1794843); details: NDM-1 enzyme, nitrocefin hydrolysis, absorbance 485 nm; series mostly up to 38.4 µM;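 also: nitrocefin turnover by NDM-1 measured as 485 nm absorbance at plateau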
# Method in brief: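 NDM-1 at 2 nM final in 50 mM HEPES pH 7.0 with 1 uM ZnSO4 and 0.01% Tween20 was preincubated with library compounds in DMSO. Nitrocefin (50 uM stock) was then added, and absorbance at 485 nm was read at the kinetic plateau.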
# Tags tell the direction and shape of the fitted curve.
# UniProt P07203, sequence (P07203 whole entry, looked up): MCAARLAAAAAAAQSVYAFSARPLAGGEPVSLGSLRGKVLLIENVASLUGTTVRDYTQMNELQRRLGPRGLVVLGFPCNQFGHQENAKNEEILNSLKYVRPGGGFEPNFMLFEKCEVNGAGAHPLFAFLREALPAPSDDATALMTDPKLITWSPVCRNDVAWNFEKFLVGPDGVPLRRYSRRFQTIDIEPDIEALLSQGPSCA
# UniProt C7C422, sequence (C7C422 whole entry, looked up): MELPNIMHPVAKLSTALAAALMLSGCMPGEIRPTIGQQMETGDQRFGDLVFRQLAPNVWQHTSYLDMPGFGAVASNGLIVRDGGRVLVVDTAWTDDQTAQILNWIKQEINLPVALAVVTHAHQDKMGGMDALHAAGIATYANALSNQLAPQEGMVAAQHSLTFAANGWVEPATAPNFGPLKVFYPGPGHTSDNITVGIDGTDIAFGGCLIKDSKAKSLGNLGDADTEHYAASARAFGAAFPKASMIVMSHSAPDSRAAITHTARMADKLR
structure (smiles),measurement,setting,value
c1cc(N[C@@H]2CCNC2)nc(-c2cnc3ccc(-c4cn[nH]c4)cn23)c1,Potency,[1],active: 934 nM
same,Potency,[2],"inconclusive: 9.47 µM [inhibitor, partial curve]"
CN(C)CCCNC(=O)c1ccc(-c2cc(O)c3ncccc3c2)cc1,Potency,[3],"inconclusive: 12.6 µM [cytotoxic, partial curve, poor fit]"
same,Potency,[4],inactive
same,Potency,[2],"inconclusive: 0.597 µM [inhibitor, full curve, poor fit]"
CC(C)[C@H](C(=O)Nc1ccc(C(=O)NO)cc1)c1ccccc1,Potency,[3],inactive
Cc1oc(=O)oc1CN1CCN(c2cc3c(cc2F)c(=O)c(C(=O)O)c2n3C(C)S2)CC1 (stereo not drawn),Potency,[4],"inconclusive: 25.8 µM [inhibitor, single point]"
same,Potency,[5],"inconclusive: 14.3 µM [inhibitor, partial curve]"
Nc1nc(=S)c2[nH]cnc2[nH]1,Potency,[3],active: 3.55 µM
Nc1ncn([C@H]2C[C@H](O)[C@@H](CO)O2)c(=O)n1,Potency,[1],active: 133 nM and active: 1.18 µM
COc1ccc(Cc2nccc3cc(OC)c(OC)cc23)cc1OC,Potency,[3],"inconclusive: 31.6 µM [cytotoxic, partial curve, poor fit]"
C[C@@]12C[C@@]3(O)O[C@@H](O1)[C@]1(COC(=O)c4ccccc4)[C@@H]3C[C@@]12O[C@@H]1O[C@H](CO)[C@@H](O)[C@H](O)[C@@H]1O,Potency,[6],inactive
C=CCc1cccc(C=NNC(=O)CN2CCN(Cc3ccccc3)CC2)c1O,Potency,[7],inactive
